The results in this text go back to a collection of fitness landscapes (doi:10.1038/s41467-024-54723-y).

The full ranking holds about 18,000 sequences; the median of “TetR repression strength (sort-seq, GFP reporter)” is about 0.23, and the highest 2% start at about 0.68. The list shows a part of the results.

Chain of UniProt P04483 (P04483 whole entry): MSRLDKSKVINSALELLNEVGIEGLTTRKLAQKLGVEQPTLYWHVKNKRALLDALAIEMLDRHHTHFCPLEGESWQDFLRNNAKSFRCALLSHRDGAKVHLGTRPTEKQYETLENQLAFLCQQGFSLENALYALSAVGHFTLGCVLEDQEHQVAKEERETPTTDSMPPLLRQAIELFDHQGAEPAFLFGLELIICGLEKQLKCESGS

The assay has as its target TetR (class B, Tn10) (UniProt P04483). In words: TetR repression strength (sort-seq, GFP reporter) (relative to tetO2 = 1); higher = stronger repression. Particulars: E. coli. In a few lines:
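E. coli SIG10-MAX carried a low-copy plasmid library with eight randomized operator positions between a constitutive promoter and sfGFP, with TetR constitutively expressed. Cells grew 5 h at 37 °C in LB with 50 µg/mL chloramphenicol, then 10^6 cells were FACS-sorted into 13 fluorescence bins, each Illumina-sequenced. Repression strength is the top bin index plus one minus the read-weighted mean bin, divided by the wild-type operator value. Three independent transformations; variants with ≥30 reads in all replicates and CV ≤0.5 were averaged.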
With TCCCGGGGAGTTCTGGAGA, the TetR repression strength turned out to be 0.218.
The sequence TCCCGTTAAGTTAATGAGA returned a TetR repression strength of 0.16.
The sequence TCCCTTGTAGTCAGCGAGA registered a TetR repression strength of 0.245.
TCCCGCCGAGTCATTGAGA yielded a TetR repression strength of 0.313.
Next, TCCCATTTAGTATACGAGA: 0.33; TCCCTTCTAGTACATGAGA: 0.44; TCCCCCGGAGTACGGGAGA: 0.258.
Consider TCCCATAGAGTGGAAGAGA, for which the TetR repression strength stood at 0.331.
Next, TCCCGGAGAGTAGCGGAGA: 0.287; TCCCGCTCAGTAAATGAGA: 0.536.
TCCCAAGCAGTTTGTGAGA came in with a TetR repression strength of 0.104.
Regarding TCCCATGTAGTGTTCGAGA, the TetR repression strength amounted to 0.0678.
As for TCCCACCCAGTAGGGGAGA, the TetR repression strength turned out to be 0.0279.
Next, TCCCCTTAAGTGAATGAGA: 0.408.
Next, TCCCGAGGAGTGCGTGAGA: 0.182; TCCCATCCAGTAGTGGAGA: 0.0483; TCCCTGCTAGTGGCAGAGA: 0.119.
Then TCCCGGCCAGTGGACGAGA, with 0.131; and TCCCGGGGAGTGGCCGAGA, with 0.236.
Take TCCCCGCAAGTAGGGGAGA: the TetR repression strength turned out to be 0.117.
For the sequence TCCCGAGGAGTGTACGAGA, the TetR repression strength was determined as 0.172.
Next, TCCCGTGAAGTCAACGAGA: 0.343; TCCCTTCAAGTCTTGGAGA: 0.186; TCCCGAACAGTGAAAGAGA: 0.488.
Consider TCCCAAATAGTGTCAGAGA, for which the TetR repression strength came to 0.465.
Then TCCCGAAGAGTTCTCGAGA, with 0.15.
Then TCCCTACGAGTGCGCGAGA, with 0.408.
Then TCCCCTTAAGTATTTGAGA, with 0.333; and TCCCGCCGAGTTATCGAGA, with 0.306; and TCCCAGGCAGTGCAGGAGA, with 0.143.
In turn, TCCCACCCAGTGGGGGAGA came in with a TetR repression strength of 0.089.
Then TCCCGATTAGTGAATGAGA, with 0.396; and TCCCTACGAGTCTGTGAGA, with 0.326.
Regarding TCCCACCAAGTAAGTGAGA, the TetR repression strength came to 0.148.
Next, TCCCTTTAAGTTATCGAGA: 0.604.
Next, TCCCCTAAAGTTCAAGAGA: 0.462; TCCCTGTAAGTTAGCGAGA: 0.293; TCCCCATCAGTACGCGAGA: 0.113.
In turn, TCCCTTCTAGTCCTCGAGA had a TetR repression strength of 0.421.
Then TCCCGGGAAGTGTATGAGA, with 0.188; and TCCCATACAGTTATTGAGA, with 0.256.
Then TCCCCTGCAGTCGGTGAGA, with 0.283.
Then TCCCGACTAGTTCGCGAGA, with 0.367; and TCCCGATGAGTAAGGGAGA, with 0.263.
In turn, TCCCAGGAAGTTTCCGAGA registered a TetR repression strength of 0.136.
TCCCTTCGAGTATACGAGA returned a TetR repression strength of 0.443.
The sequence TCCCAAGGAGTGTCTGAGA gave a TetR repression strength of 0.207.
Then TCCCGCCCAGTCCGTGAGA, with 0.622; and TCCCCTATAGTATTGGAGA, with 0.0207.
Sequence TCCCAGTTAGTGGTAGAGA yielded a TetR repression strength of 0.382.
Next, TCCCAGCCAGTTATGGAGA: 0.169; TCCCGCATAGTGGACGAGA: 0.1; TCCCGGGAAGTGGCTGAGA: 0.27.
Then TCCCCTCTAGTAAGCGAGA, with 0.41; and TCCCTGTCAGTGCCAGAGA, with 0.324.
Then TCCCGATAAGTATGAGAGA, with 0.226; and TCCCGGGGAGTGGCGGAGA, with 0.226; and TCCCAATGAGTAATGGAGA, with 0.232.
For the sequence TCCCTGTGAGTGGACGAGA, the TetR repression strength was determined as 0.227.
Then TCCCCGTGAGTTCCTGAGA, with 0.627.
The sequence TCCCTAGGAGTGGTGGAGA came in with a TetR repression strength of 0.322.
The sequence TCCCAAACAGTTGAAGAGA yielded a TetR repression strength of 0.482.
Then TCCCTGCTAGTAGCCGAGA, with 0.155.
On to TCCCCTCTAGTTCATGAGA, for which the TetR repression strength worked out at 0.355.
As for TCCCTGCAAGTGTAGGAGA, the TetR repression strength was determined as 0.104.
Next, TCCCGGAGAGTCTAGGAGA: 0.327; TCCCCCCTAGTATAGGAGA: 0.204; TCCCTGGTAGTGTAGGAGA: 0.142.
Regarding TCCCCATGAGTGGAAGAGA, the TetR repression strength is 0.329.
Then TCCCGCACAGTTCTAGAGA, with 0.426.
Then TCCCCGCTAGTACGGGAGA, with 0.197; and TCCCAGGTAGTTCGAGAGA, with 0.101; and TCCCGGGGAGTTGGGGAGA, with 0.257.
On to TCCCATGCAGTGATTGAGA, for which the TetR repression strength is 0.27.
Next, TCCCGTCTAGTAACAGAGA: 0.0213; TCCCGCTTAGTATAAGAGA: 0.531.
Next, TCCCAGATAGTGCAAGAGA: 0.108.
Then TCCCCAATAGTACGTGAGA, with 0.204; and TCCCTATCAGTCATTGAGA, with 0.708.
As for TCCCGGACAGTCGTCGAGA, the TetR repression strength is 0.892.
Then TCCCAGGGAGTCGAAGAGA, with 0.18; and TCCCATACAGTTGTAGAGA, with 0.337; and TCCCTCGTAGTGTCAGAGA, with 0.622.
Turning to TCCCATTTAGTTTTGGAGA, the TetR repression strength was found to be 0.175.
Then TCCCCCGCAGTTGGAGAGA, with 0.
TCCCACCAAGTTGCGGAGA registered a TetR repression strength of 0.
Sequence TCCCTAGCAGTGAACGAGA returned a TetR repression strength of 0.543.
For TCCCTTCGAGTGGCCGAGA, the TetR repression strength is 0.368.
TCCCTGCAAGTGTTAGAGA gave a TetR repression strength of 0.272.
Turning to TCCCTCGTAGTTGCAGAGA, the TetR repression strength is 0.117.
Then TCCCGCAAAGTACGCGAGA, with 0.236; and TCCCGTTTAGTCTGGGAGA, with 0.282.
Consider TCCCTGACAGTCGAGGAGA, for which the TetR repression strength is 0.199.
Then TCCCATCAAGTCGGGGAGA, with 0.108; and TCCCTAGTAGTCAACGAGA, with 0.322; and TCCCTAGGAGTGTGCGAGA, with 0.369.
In the case of TCCCGCGGAGTTGGAGAGA, the TetR repression strength turned out to be 0.161.
On to TCCCAAACAGTTGATGAGA, for which the TetR repression strength is 0.409.
Next, TCCCCAGGAGTTAAGGAGA: 0.0285; TCCCAGTTAGTGTCTGAGA: 0.057; TCCCAGGTAGTAGGCGAGA: 0.297.
Then TCCCTAGAAGTGTGGGAGA, with 0.0851.
